Reference: the antibiotic and cytotoxicity screens of Wong et al. (2023)
The other results are listed elsewhere or left out.

Test system: HSkMC (human skeletal muscle cells)
Assay: cytotoxicity call (relative viability < 0.9)
Details: 10 µM

| SMILES | cytotoxicity call |
| --- | --- |
| COc1ccc(CN(C)C[C@H]2Oc3ccc(NS(=O)(=O)c4c(C)noc4C)cc3CC(=O)N([C@@H](C)CO)C[C@H]2C)cc1 | inactive |
| C[C@@H]1CCCCO[C@@H](CN(C)S(=O)(=O)c2ccccc2)[C@@H](C)CN([C@H](C)CO)C(=O)c2cc(NC(=O)Nc3ccc(C(F)(F)F)cc3)ccc2O1 | inactive |
| C[C@@H]1CN([C@@H](C)CO)C(=O)c2cc(NC(=O)Cc3ccccc3)ccc2O[C@@H](C)CCCCO[C@@H]1CN(C)C(=O)C1CCCCC1 | inactive |
| C[C@@H]1CN([C@@H](C)CO)C(=O)c2cc(NC(=O)NC3CCCCC3)ccc2O[C@@H](C)CCCCO[C@@H]1CN(C)C(=O)c1ccccc1 | inactive |
| CC(C)NC(=O)N[C@@H]1C=C[C@@H](CC(=O)O)O[C@H]1CO | inactive |
| C[C@@H]1CN([C@@H](C)CO)C(=O)c2cc(/C=C/c3ccccc3)cnc2O[C@@H]1CN(C)C(=O)CN1CCOCC1 | inactive |
| C[C@H](CO)N1C[C@H](C)[C@H](CN(C)C(=O)c2ccncc2)OCCCC[C@H](C)Oc2ccc(NC(=O)C3CCCCC3)cc2C1=O | inactive |
| O=C(C[C@H]1CC[C@H]2NC[C@H](O)COC[C@@H]2O1)NCCN1CCCCC1 | inactive |
| C[C@@H]1CCCCO[C@@H](CN(C)Cc2ccc(Cl)c(Cl)c2)[C@H](C)CN([C@@H](C)CO)C(=O)c2cc(NC(=O)Nc3ccc(C(F)(F)F)cc3)ccc2O1 | inactive |
| O=C(CCCCCNC(=O)OCCCCO[C@@H]1C[C@H](c2ccc(Br)cc2)C=C(C(=O)N2CCN(Cc3ccccc3)CC2)O1)NO | inactive |
| Cc1cc(=O)n(CCO)c(=O)[nH]1 | inactive |
| COc1ccc(CNC(=O)N(C)C[C@@H]2OCc3ccccc3-c3c(n(C)c4ccccc34)C(=O)N([C@H](C)CO)C[C@@H]2C)cc1 | inactive |
| O=C(C[C@H]1CC[C@H]2[C@@H](COC[C@H](O)CN2C(=O)c2ccccn2)O1)NC1CCC1 | inactive |
| O=C(Nc1cccc(C(F)(F)F)c1)c1ccc2ccccc2c1 | inactive |
| CO[C@H]1CN(C)C(=O)c2cc(NS(=O)(=O)CC(F)(F)F)ccc2OC[C@H](C)N(Cc2nccs2)C[C@H]1C | inactive |
| COc1cccc(NC(=O)N(C)C[C@H]2Oc3cc(C#Cc4ccncc4)ccc3S(=O)(=O)N([C@H](C)CO)C[C@H]2C)c1 | inactive |
| C[C@H]1CN([C@@H](C)CO)C(=O)Cc2cc(NC(=O)Nc3cccc4ccccc34)ccc2O[C@H]1CN(C)C(=O)Nc1cccc2ccccc12 | inactive |
| CC(=O)O[C@H]1C[C@@H]2CC[C@@H]3[C@H](CC[C@@]4(C)[C@H]3C[C@H]([N+]3(C)CCCCC3)[C@@H]4OC(C)=O)[C@@]2(C)C[C@@H]1N1CCCCC1 | inactive |
| C[C@@H]1CCCCO[C@@H](CN(C)CC2CCCCC2)[C@H](C)CN([C@H](C)CO)C(=O)c2cc(NC(=O)C3CCCCC3)ccc2O1 | inactive |
| C[C@H](CO)N1C[C@H](C)[C@@H](CN(C)C(=O)Nc2ccc3c(c2)OCO3)OCCCC[C@H](C)Oc2ccc(NC(=O)c3ccncc3)cc2C1=O | inactive |
| C[C@@H]1CCCCO[C@@H](CN(C)C(=O)Nc2ccccc2)[C@H](C)CN([C@@H](C)CO)C(=O)c2cc(NC(=O)Cc3ccccc3)ccc2O1 | inactive |
| C[C@@H]1CN([C@H](C)CO)C(=O)c2cc(/C=C/c3ccccc3)cnc2O[C@H]1CN(C)C(=O)c1cnccn1 | inactive |
| C[C@@H]1CCCCO[C@H](CN(C)S(=O)(=O)c2cn(C)cn2)[C@H](C)CN([C@@H](C)CO)C(=O)c2cc(NS(C)(=O)=O)ccc2O1 | inactive |
| C[C@@H]1CN([C@@H](C)CO)C(=O)c2cccc(NC(=O)NC3CCCCC3)c2O[C@@H]1CN(C)Cc1ccc(C(F)(F)F)cc1 | inactive |
| C[C@H]1CCCCO[C@H](CN(C)C)[C@@H](C)CN([C@@H](C)CO)C(=O)c2cc(NC(=O)Nc3cccc4ccccc34)ccc2O1 | inactive |
| O=C(C[C@H]1C[C@@H]2c3cc(NS(=O)(=O)c4ccc(F)cc4)ccc3O[C@@H]2[C@@H](CO)O1)NCc1cccc(F)c1 | inactive |
| O=C(C[C@H]1CC[C@H]2[C@@H](COC[C@@H](O)CN2S(=O)(=O)c2ccccc2)O1)NCc1ccncn1 | inactive |
| CC(C)NC(=O)Nc1ccc2c(c1)CC(=O)N([C@@H](C)CO)C[C@H](C)[C@H](CN(C)Cc1ccc(C(=O)O)cc1)O2 | inactive |
| C[C@H](CO)N1C[C@H](C)[C@@H](CN(C)C(=O)Nc2cccc(F)c2)OCc2ccccc2-c2c(n(C)c3ccccc23)C1=O | inactive |

Test system: HepG2
Assay: cytotoxicity call (relative viability < 0.9)
Details: 10 µM

| SMILES | cytotoxicity call |
| --- | --- |
| C[C@@H]1CCCCO[C@H](CN(C)C(=O)C2CCCCC2)[C@@H](C)CN([C@H](C)CO)C(=O)c2cc(NC(=O)Nc3ccc4c(c3)OCO4)ccc2O1 | inactive |
| C[C@H](CO)N1C[C@H](C)[C@@H](CN(C)Cc2ccc(C(=O)Nc3ccccc3N)cc2)Oc2ccc(NC(=O)Nc3ccccc3)cc2CC1=O | inactive |
| CC(C)C#Cc1cnc2c(c1)C(=O)N([C@H](C)CO)C[C@H](C)[C@H](CN(C)C(=O)c1ccc3c(c1)OCO3)O2 | inactive |
| CCN(CC)S(=O)(=O)[C@H]1CCS(=O)(=O)C1 | inactive |
| CCCNC(=O)COc1cccc([C@@H](CCc2ccc(OC)c(OC)c2)OC(=O)[C@@H]2CCCCN2C(=O)C(=O)C(C)(C)CC)c1 | active |
| CC(C)NC(=O)Nc1cccc2c1O[C@@H](CN(C)Cc1ccc(-c3ccccc3)cc1)[C@@H](C)CN([C@@H](C)CO)C2=O | inactive |
| C[C@H]1CCCCO[C@@H](CN(C)C(=O)C2CCCCC2)[C@@H](C)CN([C@@H](C)CO)C(=O)c2cc(NC(=O)c3ccncc3)ccc2O1 | inactive |
| NNC(=O)c1ccccn1 | inactive |
| C[C@@H]1CN([C@H](C)CO)C(=O)c2cc(NC(=O)CCC(F)(F)F)ccc2O[C@@H]1CN(C)Cc1ccc(C(=O)Nc2ccccc2N)cc1 | inactive |
| C[C@@H]1CN([C@H](C)CO)C(=O)Cc2cc(NS(=O)(=O)c3ccccc3)ccc2O[C@H]1CN(C)Cc1ccc(C(=O)O)cc1 | inactive |
| O=C(C[C@@H]1CC[C@@H]2[C@H](COC[C@@H](O)CN2C(=O)Nc2cccc(F)c2)O1)NCc1ccccc1Cl | inactive |
| COc1ccc(CN(C)C[C@H]2Oc3ccc(NS(=O)(=O)c4c(C)noc4C)cc3CC(=O)N([C@@H](C)CO)C[C@H]2C)cc1 | inactive |
| C[C@@H]1CCCCO[C@@H](CN(C)S(=O)(=O)c2ccccc2)[C@@H](C)CN([C@H](C)CO)C(=O)c2cc(NC(=O)Nc3ccc(C(F)(F)F)cc3)ccc2O1 | inactive |
| C[C@@H]1CN([C@@H](C)CO)C(=O)c2cc(NC(=O)Cc3ccccc3)ccc2O[C@@H](C)CCCCO[C@@H]1CN(C)C(=O)C1CCCCC1 | inactive |
| C[C@@H]1CN([C@@H](C)CO)C(=O)c2cc(NC(=O)NC3CCCCC3)ccc2O[C@@H](C)CCCCO[C@@H]1CN(C)C(=O)c1ccccc1 | inactive |
| CC(C)NC(=O)N[C@@H]1C=C[C@@H](CC(=O)O)O[C@H]1CO | inactive |
| C[C@@H]1CN([C@@H](C)CO)C(=O)c2cc(/C=C/c3ccccc3)cnc2O[C@@H]1CN(C)C(=O)CN1CCOCC1 | inactive |

| SMILES | cytotoxicity call |
| --- | --- |
| C[C@H](CO)N1C[C@H](C)[C@H](CN(C)C(=O)c2ccncc2)OCCCC[C@H](C)Oc2ccc(NC(=O)C3CCCCC3)cc2C1=O | inactive |
| O=C(C[C@H]1CC[C@H]2NC[C@H](O)COC[C@@H]2O1)NCCN1CCCCC1 | inactive |
| C[C@@H]1CCCCO[C@@H](CN(C)Cc2ccc(Cl)c(Cl)c2)[C@H](C)CN([C@@H](C)CO)C(=O)c2cc(NC(=O)Nc3ccc(C(F)(F)F)cc3)ccc2O1 | active |
| O=C(CCCCCNC(=O)OCCCCO[C@@H]1C[C@H](c2ccc(Br)cc2)C=C(C(=O)N2CCN(Cc3ccccc3)CC2)O1)NO | inactive |
| Cc1cc(=O)n(CCO)c(=O)[nH]1 | inactive |
| COc1ccc(CNC(=O)N(C)C[C@@H]2OCc3ccccc3-c3c(n(C)c4ccccc34)C(=O)N([C@H](C)CO)C[C@@H]2C)cc1 | inactive |
| O=C(C[C@H]1CC[C@H]2[C@@H](COC[C@H](O)CN2C(=O)c2ccccn2)O1)NC1CCC1 | inactive |
| O=C(Nc1cccc(C(F)(F)F)c1)c1ccc2ccccc2c1 | active |
| CO[C@H]1CN(C)C(=O)c2cc(NS(=O)(=O)CC(F)(F)F)ccc2OC[C@H](C)N(Cc2nccs2)C[C@H]1C | inactive |
| COc1cccc(NC(=O)N(C)C[C@H]2Oc3cc(C#Cc4ccncc4)ccc3S(=O)(=O)N([C@H](C)CO)C[C@H]2C)c1 | active |
| C[C@H]1CN([C@@H](C)CO)C(=O)Cc2cc(NC(=O)Nc3cccc4ccccc34)ccc2O[C@H]1CN(C)C(=O)Nc1cccc2ccccc12 | inactive |
| CC(=O)O[C@H]1C[C@@H]2CC[C@@H]3[C@H](CC[C@@]4(C)[C@H]3C[C@H]([N+]3(C)CCCCC3)[C@@H]4OC(C)=O)[C@@]2(C)C[C@@H]1N1CCCCC1 | inactive |
| C[C@@H]1CCCCO[C@@H](CN(C)CC2CCCCC2)[C@H](C)CN([C@H](C)CO)C(=O)c2cc(NC(=O)C3CCCCC3)ccc2O1 | inactive |
| C[C@H](CO)N1C[C@H](C)[C@@H](CN(C)C(=O)Nc2ccc3c(c2)OCO3)OCCCC[C@H](C)Oc2ccc(NC(=O)c3ccncc3)cc2C1=O | inactive |
| C[C@@H]1CCCCO[C@@H](CN(C)C(=O)Nc2ccccc2)[C@H](C)CN([C@@H](C)CO)C(=O)c2cc(NC(=O)Cc3ccccc3)ccc2O1 | inactive |
| C[C@@H]1CN([C@H](C)CO)C(=O)c2cc(/C=C/c3ccccc3)cnc2O[C@H]1CN(C)C(=O)c1cnccn1 | inactive |
| C[C@@H]1CCCCO[C@H](CN(C)S(=O)(=O)c2cn(C)cn2)[C@H](C)CN([C@@H](C)CO)C(=O)c2cc(NS(C)(=O)=O)ccc2O1 | inactive |
